# The source gives no read counts; variants with many changes may rest on few reads.
# B1: OR4K15 (parent)
# chain: GUUAACGGUCAUAGGCCAUGGAAACUAGGAGCACCAUUUCGCUGCCAGUGAAGAAAUGAACAAAGAAAAUCUGGGCCAGGCAGGCAUCAAAAGAAAUAGUCUUGCGCUCAACCAGAAAGUCUGUAAUCAUUUUAAGGGUA
# Variants of: B1
# Experiment: self-cleavage, relative activity (ratio to wild type); higher = more cleavage; in vitro, sequencing; the parent is a self-cleaving ribozyme
row,Variant,self-cleavage
1,A68G A111G C128A U130C,0.01
2,A68G A111G U132C,0.01
3,A68G A111U A117G,0.2
4,A68G A114G A129G,0.1
5,A68G A114G U131C,0.17
6,A68G A114G U132C,0.41
7,A68G A117G U122C,2.09
8,A68G C105U A125U,0.13
9,A68G G73A A118G,0.1
10,A68G G74A A89U,0.22
11,A68G U70A A117G,1.37
12,A68G U70C U72A A78U A82U A92G A96G A118G,0.02
13,A68G U70C U103C,0.42
14,A68G U72C G79A,0.25
15,A68G U72G A86U,0.34
16,A68G U87A U122C,0.32
17,A68G U87A U127C,0.74
18,A68G U87C U100C U108C,0
19,A68G U87C U103C,0.1
20,A68G U87C U122A,0.91
21,A68G U97C A129G,0.7

row,Variant,self-cleavage
1,A68G U100C A125G,1.59
2,A68G U100C A135G,0.69
3,A68G U102C C105A,0.03
4,A68G U103C G138A,0.88
5,A68G U124A A129G,0.78
6,A68G U130C A135G,0.92
7,A68G U133A G136C,0.98
8,A68U A69C G119A A126G A135G,0.57
9,A68U A78U A91G,0.05
10,A68U A82G A92G,0.19
11,A68U A82G A95G,0.7
12,A68U A86G A96G,2.59
13,A68U A89G A114G A135U,0.63
14,A68U A89G A117G,2.31
15,A68U A94C U132G,1.16
16,A68U G73A A118G U122C,0.07
17,A68U G84A A114G A118G,0.27
18,A68U U70C A91G,0.45
19,A68U U70C A116G A118G,1.88
20,A68U U70C G99C A118G U132C,0
21,A68U U72C A91U A96G C128U U130A,0.17

row,Variant,self-cleavage
1,A68U U127A A129G,1.31
2,A69C A96U A110G,0.12
3,A69C A126G U130C,0.67
4,A69C U102A G104A,0.01
5,A69G A78U C105U A135G,0.02
6,A69G A86U A92G A111C A117G,0.04
7,A69G A90G A95G,0.79
8,A69G A90U A116G U131C,0.37
9,A69G A91G A96G,1.18
10,A69G A92U A94G A95G,1.49
11,A69G A94G A95G A96G U97G U100C,0.75
12,A69G A95G A110G U122C,0.14
13,A69G A96U A110G,0.09
14,A69G A111G A116G A117G,0.01
15,A69G A118G A140U,1.47
16,A69G A118U U120C,0.33
17,A69G U70A U127C,0.16
18,A69G U72C G80A,0.18
19,A69G U72C U100C U122A A125C,0.11
20,A69G U72G C105U,0.1
21,A69G U87C A110G A117U A126G,0.02

row,Variant,self-cleavage
1,A69G U87C U120C U130C,0.09
2,A69G U97C U139C,1.17
3,A69G U100C A116G,2.06
4,A69G U100C U103G A118G U127C,0.01
5,A69G U103C U130C,0.17
6,A69G U108C A116G,0.01
7,A69G U108C A135G,0.01
8,A69G U120A U139C,1.06
9,A69U A78G U122C,0.15
10,A69U A91G A95G A110G,0.33
11,A69U A91G A96G A117G,2.02
12,A69U A92G G115A,0.09
13,A69U A94G A111G,0.02
14,A69U A96G U108C,0.02
15,A69U A118G G137A,1.24
16,A69U U72A A116G,0.14
17,A69U U103A A114G,0.49
18,U70A A78U A86U U122C,0.09
19,U70A A91G A117U A125G,0.14
20,U70A U72A U127C,0.14

# From the RNAGym collection of RNA variant scans (doi:10.7554/elife.90254)
